# Measurements: PubChem BioAssay AID588855 (National Center for Advancing Translational Sciences (NCATS), 2011)
# In all, about 410,000 compounds went through this assay and about 5,000 (1.2%) were called active. The inconclusive results got no clear call from the source; some entries with a clear call stand among them for comparison. The call rests on the fitted dose curve; in most records, active means well fitted inhibition curve with a large enough effect; inconclusive means small, poorly fitted or top-dose-only effect; inactive means no such curve, though single readings can be large or run the other way. Potencies beside an inconclusive call are fits to weak or partial responses and may not hold up.
# Assay: qHTS for Inhibitors of TGF-b; further: nearly all actives have a fitted effect of over 65% in size
# Conditions: HepG2 CAGA-GFP TGF-b/SMAD3 reporter, GFP fluorescence, 18 h, TGF-beta stimulated, 500 pg/mL final; series mostly up to 46.1 µM; activity, negative = inhibition: at the top concentration
# Method in brief: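 HEPG2 CAGA-GFP, 1000 cells/well; 2 h settle, 37 C; cpd via pin tool; TGF-b 500 pg/mL final; 18 h, 37 C; GFP imaging ex488/em500-530; %Activity normalised to -TGF-b and +DMSO controls; CRC fit, curve class.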
# On the % scale 0 is the no-effect control and ±100 the full control effect; potency means the concentration at half of the fitted maximal effect; tags describe the fitted curve by direction and shape.
Compound,"activity, negative = inhibition",Potency
COc1ccc(/C=N/NC(=O)C2C(=O)NCC2c2ccccc2)c(OC)c1 (stereo not drawn),inactive: 6.16%,
CCCCN(CC)CCCNC(=O)c1csc2c1CCCCC2,,"inconclusive: 35.5 µM [inhibitor, single point]"
O=C(Nc1ccc(Cl)c(S(=O)(=O)N2CCOCC2)c1)c1ccc(OCC2CCCO2)cc1 (stereo not drawn),,"inconclusive: 15.8 µM [inhibitor, single point]"
CCCOc1ccc(N2C(=O)CC(N3CCN(CCN=CC4C(=O)CC(C)(C)CC4=O)CC3)C2=O)cc1 (stereo not drawn),inactive: 10.5%,
CC1CC(C)CN(C(=O)CNC(=O)c2sc3ccccc3c2Cl)C1 (stereo not drawn),,"inconclusive: 35.5 µM [inhibitor, single point]"
CCCN(Cc1cccs1)C(=O)Nc1ccccc1C,,"inconclusive: 35.5 µM [inhibitor, partial curve, poor fit]"
Cc1cc([N+](=O)[O-])nn1CC(=O)N/N=C/c1ccccc1Br,inactive: 3.39%,
Cc1ccccc1-c1nc(S(=O)(=O)c2ccc(Br)cc2)c(NCc2cccnc2)o1,,"inconclusive: 22.4 µM [inhibitor, single point]"
O=C(CN1CCN(S(=O)(=O)c2ccc(Br)cc2)CC1)Nc1ccc(F)cc1F,,"inconclusive: 0.282 µM [inhibitor, full curve, poor fit]"
O=C(C(=O)N1CCN(c2cccc(Cl)c2)CC1)c1c[nH]c2ccccc12,,"inconclusive: 35.5 µM [inhibitor, partial curve, poor fit]"
CCN1C(=O)[C@@H]2[C@@H](c3ccc(-c4ccc(Cl)c(Cl)c4)c(OC)c3)N3CCC[C@@]3(C(=O)OC)[C@@H]2C1=O,,"inconclusive: 11.2 µM [inhibitor, partial curve]"
Cc1ccc(S(=O)(=O)CCc2nc3ccccc3s2)cc1,,"inconclusive: 35.5 µM [inhibitor, single point]"
CN1CCN(S(=O)(=O)c2ccc(Sc3nc4ccccc4[nH]3)c3nsnc23)CC1,,active: 10 µM
Cc1cccc(C)c1OCC(=O)N(Cc1ccc(Cl)cc1)CC1CCCO1 (stereo not drawn),,"inconclusive: 35.5 µM [inhibitor, single point]"
Cc1cc(C)cc(NS(=O)(=O)c2cc(Br)cnc2N)c1,,"inconclusive: 35.5 µM [inhibitor, single point]"
O=C1NC(c2ccccc2)=C(c2ccc3ccccc3n2)C(c2ccc(F)cc2)N1 (stereo not drawn),,"inconclusive: 5.01 µM [inhibitor, partial curve]"
COc1ccc(/C=N/NC(=O)c2ccoc2C)cc1OC,inactive: -0.0402%,
C[C@@H]1CN([C@@H](C)CO)C(=O)c2cc(NS(C)(=O)=O)ccc2O[C@@H](C)CCCCO[C@H]1CN(C)Cc1ccc2c(c1)OCO2,,"inconclusive: 6.31 µM [inhibitor, single point]"
S=C(Nc1ccc(Cl)cc1)c1nc2ccccc2[nH]1,,"inconclusive: 15.8 µM [inhibitor, single point]"
O=C(NC(=O)c1ccncc1)NC(c1ccccc1)c1ccccc1,inactive: 7.61%,
N#Cc1ccccc1OCC(=O)NNC(=O)CCC1CCCC1,inactive: -7.9%,
Cc1ccccc1NC(=S)NCCC(c1ccccc1)c1ccccc1,,"inconclusive: 17.8 µM [inhibitor, single point]"

Compound,"activity, negative = inhibition",Potency
C=C(C)COc1ccc(-c2nc(N)ncc2Oc2ccccc2OCC)c(O)c1,,"inconclusive: 35.5 µM [inhibitor, partial curve, poor fit]"
CC1CN(c2ccc(C(F)(F)F)cc2[N+](=O)[O-])CCN1S(C)(=O)=O (stereo not drawn),inactive: -8.47%,
COc1ccccc1NC(=O)C(=O)N/N=C(\C)CC(=O)Nc1ccccn1,,"inconclusive: 3.16 µM [inhibitor, single point]"
COc1ccc(Nc2nnc(-c3ccc(C)c(S(=O)(=O)N4CCN(C)CC4)c3)c3ccccc23)cc1,,active: 14.1 µM
Cc1ccc(C)c(N2CCN(C(=O)c3ccc4c(c3)c(C)c(C)n4C)CC2)c1,,"inconclusive: 35.5 µM [inhibitor, single point]"
COc1ccc2sc(NC(=O)c3ccco3)nc2c1,inactive: -5.87%,
CCOC(=O)c1csc(NC(=O)COc2ccc(Cl)cc2Cl)n1,inactive: -22.3%,
Cc1ccc(C2CC(=O)Nc3c2ccc2ccccc32)cc1[N+](=O)[O-] (stereo not drawn),,"inconclusive: 20 µM [inhibitor, single point]"
O=C(CCc1ccccc1)NNC(=O)c1ccncc1,inactive: 32.1%,
CCOc1ccccc1C1CC(=O)NC(C)=C1C(=O)OCc1ccc(C)cc1 (stereo not drawn),,"inconclusive: 35.5 µM [inhibitor, single point]"
O=C1N(Cc2cccc(Cl)c2)C[C@@H]2C[C@@H](c3cccn3-c3nccs3)N3CCC[C@@]123,,"inconclusive: 35.5 µM [inhibitor, single point]"
C=CCOc1ccccc1/C=N/O,,"inconclusive: 5.01 µM [inhibitor, single point]"
CC(C)C1CCN(C(=O)C2CCC(=O)N(CCc3ccc(Cl)cc3)C2)CC1 (stereo not drawn),,"inconclusive: 7.94 µM [inhibitor, partial curve, poor fit]"
Cc1ccc(-c2noc(CSc3nnc(-c4ccccc4)n3C)n2)cc1,,"inconclusive: 35.5 µM [inhibitor, single point]"
CCOC(=O)N(O)c1ccc(C=Cc2ccccc2)cc1,,"inconclusive: 1.41 µM [inhibitor, full curve, poor fit]"
CNC(=O)c1ccc(-n2nc(C)cc2-c2ccccc2)cc1,,"inconclusive: 0.398 µM [inhibitor, full curve, poor fit]"
COc1ccc(/C=N/NC(=O)CCCCCNC(=O)c2ccccc2)cc1,,"inconclusive: 3.16 µM [inhibitor, single point]"
Cc1ccc(S(=O)(=O)N2CCOCC2)cc1NC(=O)CNCc1ccc(Cl)cc1Cl,,"inconclusive: 14.1 µM [inhibitor, single point]"
O=C(O)Cn1ccnc1[N+](=O)[O-],inactive: 2.84%,
CC(=O)C(Cc1ccc(Cl)nc1)(Cc1ccc(Cl)nc1)C(C)=O,inactive: 10.4%,
O=C1OC(Sc2ccccc2)(c2ccccc2)c2ccccc21 (stereo not drawn),,"inconclusive: 11.2 µM [inhibitor, partial curve]"
